# This is one part of the list. Single values are uncertain, as repeats are few or missing.
# What was measured:
# Test in all cases: cell count relative to DMSO control; melanoma cells; higher = more viable cells
# Conditions in all cases: library dose: low library concentration; 72 h
# MeWo = test system: MeWo
# RPMI7951 = test system: RPMI7951
# RVH-421 = test system: RVH-421
# SkMel28 = test system: SkMel28
# SkMel30 = test system: SkMel30
# SkMel5 = test system: SkMel5
# UACC257 = test system: UACC257
# UACC62 = test system: UACC62
# WM115 = test system: WM115
# WM1716 = test system: WM1716
# 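Note: cell number obtained by counting DAPI-stained nuclei in high-throughput microscope images with image analysis software, screen run in 1,536-well plates.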
SMILES,cell count (MeWo),cell count (RPMI7951),cell count (RVH-421),cell count (SkMel28),cell count (SkMel30),cell count (SkMel5),cell count (UACC257),cell count (UACC62),cell count (WM115),cell count (WM1716)
"Cc1cc([N+](=O)[O-])ccc1NS(=O)(=O)c1cc(Cl)ccc1Cl + CCCCCCCCCCCC1=C(O)C(=O)C=C(O)C1=O [Embelin] (first compound 1 µM, partner dose 1.2 µM)",91.5%,117%,103%,101%,109%,85.8%,66.7%,88.9%,92.2%,101%
"COc1ccc2c(c1)CCC1C2CCC2(C)C(NCCCCCCN3C(=O)C=CC3=O)CCC12 (stereo not given) + O=S(=O)(c1ccccc1)N(CC(F)(F)F)c1ccc(C(O)(C(F)(F)F)C(F)(F)F)cc1 [T0901317] (first compound 0.4 µM, partner dose 1.4 µM)",102%,78.4%,97.4%,95.1%,99.5%,82.9%,67%,82.5%,92.1%,60.6%
"COC(=O)c1sccc1S(=O)(=O)Nc1ccc(Nc2ccccc2)cc1OC + c1cc(-c2cnn3cc(-c4ccc(OCCN5CCCCC5)cc4)cnc23)ccn1 [Dorsomorphin] (first compound 1 µM, partner dose 0.4 µM)",103%,98.4%,103%,87.3%,102%,74.2%,96.4%,103%,100%,112%
"N#Cc1c(O)c2c(-c3ccc(-c4ccccc4O)cc3)csc2[nH]c1=O + COc1cc(N2CCC(N3CCN(C)CC3)CC2)ccc1Nc1ncc(Cl)c(Nc2ccccc2S(=O)(=O)C(C)C)n1 [NVP-TAE684] (first compound 2 µM, partner dose 0.08 µM)",101%,103%,17.2%,84.7%,115%,94.2%,88.4%,92.7%,102%,91.8%
"O=C(O)C(=O)Nc1sc2c(c1C(=O)O)CCNC2 + COc1cc(N2CCC(N3CCN(C)CC3)CC2)ccc1Nc1ncc(Cl)c(Nc2ccccc2S(=O)(=O)C(C)C)n1 [NVP-TAE684] (first compound 1.66667 µM, partner dose 0.08 µM)",92.3%,86.4%,110%,96.8%,94.1%,88.4%,86.1%,90.3%,97.9%,95.4%
"O=C1NC(=O)/C(=C/c2ccc(-c3ccc(F)cc3O)o2)S1 + Oc1nc(-c2ccc(C(F)(F)F)cc2)nc2c1CSCC2 [XAV939] (first compound 1 µM, partner dose 2 µM)",95.7%,106%,89.1%,89%,95.3%,82.2%,85.7%,79.7%,89.4%,73.6%
"Cc1cc([N+](=O)[O-])ccc1NS(=O)(=O)c1cc(Cl)ccc1Cl + O=c1cc(-c2cccc3c2Sc2ccccc2S3)oc(N2CCOCC2)c1 [KU55933] (first compound 1 µM, partner dose 1 µM)",89.8%,103%,82%,76.6%,95.2%,81.1%,97.5%,87.9%,84.7%,98.6%
"COc1ccc(COc2ccc(Cc3cnc(N)nc3N)cc2OC)cc1 + O=C(O)C(=O)Nc1sc2c(c1C(=O)O)CCNC2 [TCS401] (first compound 1 µM, partner dose 1.66667 µM)",93.2%,88.1%,82%,85.3%,86.2%,96.8%,93.9%,78.7%,91.3%,83.4%
"COc1cc2ncnc(Nc3ccc(Oc4ccccc4)cc3)c2cc1OC + Cn1cc(/C=C2\C(=O)Nc3cccnc32)c2ccccc21 [GW441756] (first compound 2 µM, partner dose 0.4 µM)",94.8%,106%,114%,83.7%,96.1%,80.9%,78.9%,88.7%,103%,104%
"COc1ccc(COc2ccc(Cc3cnc(N)nc3N)cc2OC)cc1 + O=S(=O)(c1ccccc1)N(CC(F)(F)F)c1ccc(C(O)(C(F)(F)F)C(F)(F)F)cc1 [T0901317] (first compound 1 µM, partner dose 1.4 µM)",93.1%,111%,94.9%,89.8%,109%,92.3%,79.5%,93.9%,90.5%,91.9%
"COc1ccc(COc2ccc(Cc3cnc(N)nc3N)cc2OC)cc1 + COc1cc2ncnc(Nc3ccc(Oc4ccccc4)cc3)c2cc1OC [SrcI1] (first compound 1 µM, partner dose 2 µM)",93.3%,107%,8.52%,87.2%,97.9%,97%,102%,96.2%,102%,112%
"N#Cc1c(O)c2c(-c3ccc(-c4ccccc4O)cc3)csc2[nH]c1=O + Cc1cc([N+](=O)[O-])ccc1NS(=O)(=O)c1cc(Cl)ccc1Cl [FH535] (first compound 2 µM, partner dose 1 µM)",93.2%,107%,79.1%,88.5%,97.6%,91%,101%,84.9%,103%,105%
"Cc1cc([N+](=O)[O-])ccc1NS(=O)(=O)c1cc(Cl)ccc1Cl + CC(C)CCN1c2nc(Nc3cc(F)c(O)c(F)c3)ncc2N(C)C(=O)C1C [BID1870] (first compound 1 µM, partner dose 0.2 µM)",79%,111%,101%,73.6%,107%,97.4%,75.7%,88.8%,99.5%,109%
"COC(=O)c1sccc1S(=O)(=O)Nc1ccc(Nc2ccccc2)cc1OC + CCN(CC)CCCCNc1ncc2cc(-c3cc(OC)cc(OC)c3)c(NC(=O)NC(C)(C)C)nc2n1 [PD173074] (first compound 1 µM, partner dose 0.1 µM)",113%,101%,103%,90.7%,89.3%,92.8%,83.6%,92.5%,108%,109%
"COC(=O)c1sccc1S(=O)(=O)Nc1ccc(Nc2ccccc2)cc1OC + O=c1cc(-c2cccc3c2Sc2ccccc2S3)oc(N2CCOCC2)c1 [KU55933] (first compound 1 µM, partner dose 1 µM)",97.3%,88.3%,118%,97%,107%,93.8%,103%,108%,101%,98.6%
"CCCCCCCCCCCC1=C(O)C(=O)C=C(O)C1=O [Embelin] + CC(C)CCN1c2nc(Nc3cc(F)c(O)c(F)c3)ncc2N(C)C(=O)C1C [BID1870] (first compound 1.2 µM, partner dose 0.2 µM)",105%,118%,85.9%,90.3%,130%,124%,94.2%,98.8%,109%,110%
"O=C1NC(=O)/C(=C/c2ccc(-c3ccc(F)cc3O)o2)S1 + CCCCCCCCCCCC1=C(O)C(=O)C=C(O)C1=O [Embelin] (first compound 1 µM, partner dose 1.2 µM)",99.9%,102%,112%,93.8%,130%,105%,94.2%,109%,95.6%,118%
"Oc1cc(-c2nc(-c3ccccc3)[nH]c2-c2ccncc2)ccc1Cl + Oc1nc(-c2ccc(C(F)(F)F)cc2)nc2c1CSCC2 [XAV939] (first compound 0.2 µM, partner dose 2 µM)",98.4%,108%,79.2%,73.3%,96.8%,75.5%,76.9%,64.3%,66.7%,69.9%
"COc1cc2ncnc(Nc3ccc(Oc4ccccc4)cc3)c2cc1OC + Oc1nc(-c2ccc(C(F)(F)F)cc2)nc2c1CSCC2 [XAV939] (first compound 2 µM, partner dose 2 µM)",93.6%,112%,115%,84.4%,113%,98.2%,74.6%,106%,91.9%,75.7%
"Oc1cc(-c2nc(-c3ccccc3)[nH]c2-c2ccncc2)ccc1Cl + O=c1cc(-c2cccc3c2Sc2ccccc2S3)oc(N2CCOCC2)c1 [KU55933] (first compound 0.2 µM, partner dose 1 µM)",100%,108%,84.8%,82.1%,98.5%,110%,101%,68.2%,70.9%,105%
"O=c1cc(-c2cccc3c2Sc2ccccc2S3)oc(N2CCOCC2)c1 + CC(C)CCN1c2nc(Nc3cc(F)c(O)c(F)c3)ncc2N(C)C(=O)C1C [BID1870] (first compound 1 µM, partner dose 0.2 µM)",92.8%,97.2%,129%,82.3%,70.7%,92.6%,92.9%,80.3%,90.7%,111%
"COc1ccc2c(c1)CCC1C2CCC2(C)C(NCCCCCCN3C(=O)C=CC3=O)CCC12 (stereo not given) + Oc1cc(-c2nc(-c3ccccc3)[nH]c2-c2ccncc2)ccc1Cl [L779450] (first compound 0.4 µM, partner dose 0.2 µM)",92.3%,53.5%,88.6%,82%,93.4%,109%,92.4%,82.2%,89.1%,79.2%
"COc1ccc(-c2ccc3c(N4CCOCC4)nc(N4C[C@@H](C)O[C@@H](C)C4)nc3n2)cc1CO + Oc1cc(-c2nc(-c3ccccc3)[nH]c2-c2ccncc2)ccc1Cl [L779450] (first compound 0.02 µM, partner dose 0.2 µM)",97.7%,113%,123%,97.2%,85.5%,93.2%,82.9%,88.4%,97.4%,101%
"Oc1cc(-c2nc(-c3ccccc3)[nH]c2-c2ccncc2)ccc1Cl + O=C(O)C(=O)Nc1sc2c(c1C(=O)O)CCNC2 [TCS401] (first compound 0.2 µM, partner dose 1.66667 µM)",109%,112%,106%,92.8%,99.3%,98.1%,86.3%,71.1%,72.6%,121%

# Source: the supplement of paper PMC4604168 (melanoma cell lines)
